Experiments:
[1] = molecular target: T1, human PD-L1 on CHO-huPDL1 cells (human, UniProt Q9NZQ7); assay: flow cytometry on CHO-huPDL1 cells
T1 construct: whole, on cells; also called CHO-hPDL1
From the text: After washing with PBS, a flow cytometer was used for detection.

[2] = molecular target: CD3 on human Jurkat cells (ATCC TIB-152) (human); assay: flow cytometry on Jurkat cells
[3] = molecular target: T2, human PD-L1 protein (ACRO, PD1-H5258) (human, UniProt Q9NZQ7 partial chain); assay: Carterra HC200M chip, antibody captured via anti-human IgG Fc, 1:1 model
T2 construct: Bought protein; also called Human PDL1-Fc

[4] = molecular target: T3, hFc-tagged human MSLN recombinant protein (huMSLN-hFc, Kactus Biosystems, MSL-HM280) (human, UniProt Q13421 296-580); assay: as above
T3 construct: Bought protein; also called huMSLN-Fc; human MSLN-Fc

[5] = molecular target: T4, human CD3εγ (acrobiosystems, CDG-H52W5) (human, UniProt P07766 23-126; P09693 23-116); assay: as above
T4 construct: Bought protein

[6] = molecular target: T5, human MSLN on MC38/MSLN cells (human, UniProt Q13421 296-598); assay: flow cytometry on MC38/MSLN cells (human MSLN)
T5 construct: whole, on cells; also called huMSLN; cells expressing MSLN

T4 sequence (P07766 23-126, chain 1 of 2): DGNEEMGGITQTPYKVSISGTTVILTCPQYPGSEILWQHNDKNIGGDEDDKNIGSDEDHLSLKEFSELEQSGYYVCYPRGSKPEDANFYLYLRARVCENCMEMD
T4 sequence (P09693 23-116, chain 2 of 2, further chain): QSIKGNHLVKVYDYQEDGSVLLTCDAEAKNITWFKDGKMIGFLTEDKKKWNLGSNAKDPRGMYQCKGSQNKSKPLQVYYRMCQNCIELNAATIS

B1: CD3-PDL1-MSLN trispecific antibody 5Y3-4 (other)
light: [omitted - about 100 residues][omitted - about 100 residues]
heavy: EVQLVESGGGLVQPGGSLRLSCAASGFTFNTYAMNWVRQAPGKGLEWVARIRSKYNNYATYYADSVKGRFTISRDDSKSSLYLQMNSLKTEDTAVYYCVRHGNFGNNYVSWFASWGQGTLVTVSSASTKGPSVFPLAPSSKSTSGGTAALGCLVKDYFPEPVTVSWNSGALTSGVHTFPAVLQSSGLYSLSSVVTVPSSSLGTQTYICNVNHKPSNTKVDKKVEPKSCDKTHTCPPCPAPEAAGAPSVFLFPPKPKDTLMISRTPEVTCVVVDVSHEDPEVKFNWYVDGVEVHNAKTKPREEQYNSTYRVVSVLTVLHQDWLNGKEYKCAVSNKALPAPIEKTISKAKGQPREPQVYTLPPSRDELTKNQVSLWCLVKGFYPSDIAVEWESNGQPENNYKTTPPVLDSDGSFFLYSKLTVDKSRWQQGNVFSCSVMHEALHNHYTQKSLSLSPGGGGGSGGGGSGGGGSEVQLVESGGGLIQPGGSLRLSCAASGNIGSIRHMGWVRQAPGKERELVATITTVGTTYYANFVKGRFTISRDNSKNTLYLQMNSLRAEDTAVYYCRATAHPTDYWGQGTLVTVSS
chain: EVQLVESGGGLIQPGGSLRLSCAASGNIGSIRHMGWVRQAPGKERELVATITTVGTTYYANFVKGRFTISRDNSKNTLYLQMNSLRAEDTAVYYCRATAHPTDYWGQGTLVTVSSGGGGSDKTHTCPPCPAPEAAGAPSVFLFPPKPKDTLMISRTPEVTCVVVDVSHEDPEVKFNWYVDGVEVHNAKTKPREEQYNSTYRVVSVLTVLHQDWLNGKEYKCAVSNKALPAPIEKTISKAKGQPREPQVYTLPPSRDELTKNQVSLSCAVKGFYPSDIAVEWESNGQPENNYKTTPPVLDSDGSFFLVSKLTVDKSRWQQGNVFSCSVMHEALHNHYTQKSLSLSPGGGGGSGGGGSGGGGSEVQLLESGGGLVQPGGSLRLSCAASGRTFSTNVMGWFRQAPGKGREFVSAISRAGSTYSADSVKGRFTISRDNSKNTLYLQMNSLRAEDTAVYYCAAGSSPTAIFGKSGMDYWGQGTQVTVSS
notes: Trispecific, three chains, structure as for 5Y3-1
Question: Which “EC50 (read off the curve)” value [1] does the source give for B1 here?
Answer: The value was ~80 nM.

Question: And the EC50 [2]?
Answer: The EC50 was 38.3 nM.

Question: And the Kd [3]?
Answer: Its Kd is 433 nM.

Question: What about the Kd [4] of the same binder?
Answer: Its Kd is 4.6 nM.

Question: And the Kd [5]?
Answer: The Kd was 621 nM.

B2: CD3-PDL1-MSLN trispecific antibody 5Y3-1 (other)
light: [omitted - about 100 residues][omitted - about 100 residues]
heavy: EVQLVESGGGLVQPGGSLRLSCAASGFTFNTYAMNWVRQAPGKGLEWVARIRSKYNNYATYYADSVKGRFTISRDDSKSSLYLQMNSLKTEDTAVYYCVRHGNFGNNYVSWFASWGQGTLVTVSSASTKGPSVFPLAPSSKSTSGGTAALGCLVKDYFPEPVTVSWNSGALTSGVHTFPAVLQSSGLYSLSSVVTVPSSSLGTQTYICNVNHKPSNTKVDKKVEPKSCDKTHTCPPCPAPEAAGAPSVFLFPPKPKDTLMISRTPEVTCVVVDVSHEDPEVKFNWYVDGVEVHNAKTKPREEQYNSTYRVVSVLTVLHQDWLNGKEYKCAVSNKALPAPIEKTISKAKGQPREPQVYTLPPSRDELTKNQVSLWCLVKGFYPSDIAVEWESNGQPENNYKTTPPVLDSDGSFFLYSKLTVDKSRWQQGNVFSCSVMHEALHNHYTQKSLSLSPGGGGGSGGGGSGGGGSEVQLVESGGGLIQPGGSLRLSCAASGNIGSIRHMGWVRQAPGKERELVATITTVGTTYYANFVKGRFTISRDNSKNTLYLQMNSLRAEDTAVYYCRATAHPTDYWGQGTLVTVSS
chain: EVQLVESGGGLIQPGGSLRLSCAASGNIGSIRHMGWVRQAPGKERELVATITTVGTTYYANFVKGRFTISRDNSKNTLYLQMNSLRAEDTAVYYCRATAHPTDYWGQGTLVTVSSGGGGSDKTHTCPPCPAPEAAGAPSVFLFPPKPKDTLMISRTPEVTCVVVDVSHEDPEVKFNWYVDGVEVHNAKTKPREEQYNSTYRVVSVLTVLHQDWLNGKEYKCAVSNKALPAPIEKTISKAKGQPREPQVYTLPPSRDELTKNQVSLSCAVKGFYPSDIAVEWESNGQPENNYKTTPPVLDSDGSFFLVSKLTVDKSRWQQGNVFSCSVMHEALHNHYTQKSLSLSPGGGGGSGGGGSGGGGSEVQLLESGGGLVQAGGSLRLSCAASGRTFSTNVMGWFRQAPGKGLEFVSAISRAGSTYSADSVKGRFTISRDNSKNTLYLQMNSLRAEDTAVYYCAAGSSPTAIFGKSGMDYWGQGTQVTVSS
Question: Which “EC50 (read off the curve)” value [1] does the source give for B2 here?
Answer: The value was ~40 nM.

Question: And the EC50 [2]?
Answer: The EC50 was 24.9 nM.

Question: What about the Kd [3] of the same binder?
Answer: The Kd was 393 nM.

Question: What about the Kd [4] of the same binder?
Answer: Its Kd is 4.58 nM.

Question: What about the Kd [5] of the same binder?
Answer: Its Kd is 474 nM.

B3: CD3-PDL1-MSLN trispecific antibody 5Y3-5 (other)
light: [omitted - about 100 residues][omitted - about 100 residues]
heavy: EVQLVESGGGLVQPGGSLRLSCAASGFTFNTYAMNWVRQAPGKGLEWVARIRSKYNNYATYYADSVKGRFTISRDDSKSILYLQMNSLKTEDTAMYYCVRHERFGNSYVSWFAYWGQGTLVTVSSASTKGPSVFPLAPSSKSTSGGTAALGCLVKDYFPEPVTVSWNSGALTSGVHTFPAVLQSSGLYSLSSVVTVPSSSLGTQTYICNVNHKPSNTKVDKKVEPKSCDKTHTCPPCPAPEAAGAPSVFLFPPKPKDTLMISRTPEVTCVVVDVSHEDPEVKFNWYVDGVEVHNAKTKPREEQYNSTYRVVSVLTVLHQDWLNGKEYKCAVSNKALPAPIEKTISKAKGQPREPQVYTLPPSRDELTKNQVSLWCLVKGFYPSDIAVEWESNGQPENNYKTTPPVLDSDGSFFLYSKLTVDKSRWQQGNVFSCSVMHEALHNHYTQKSLSLSPGGGGGSGGGGSGGGGSEVQLVESGGGLIQPGGSLRLSCAASGNIGSIRHMGWVRQAPGKERELVATITTVGTTYYANFVKGRFTISRDNSKNTLYLQMNSLRAEDTAVYYCRATAHPTDYWGQGTLVTVSS
chain: EVQLVESGGGLIQPGGSLRLSCAASGNIGSIRHMGWVRQAPGKERELVATITTVGTTYYANFVKGRFTISRDNSKNTLYLQMNSLRAEDTAVYYCRATAHPTDYWGQGTLVTVSSGGGGSDKTHTCPPCPAPEAAGAPSVFLFPPKPKDTLMISRTPEVTCVVVDVSHEDPEVKFNWYVDGVEVHNAKTKPREEQYNSTYRVVSVLTVLHQDWLNGKEYKCAVSNKALPAPIEKTISKAKGQPREPQVYTLPPSRDELTKNQVSLSCAVKGFYPSDIAVEWESNGQPENNYKTTPPVLDSDGSFFLVSKLTVDKSRWQQGNVFSCSVMHEALHNHYTQKSLSLSPGGGGGSGGGGSGGGGSEVQLLESGGGLVQPGGSLRLSCAASGRTFSTNVMGWFRQAPGKGREFVSAISRAGSTYSADSVKGRFTISRDNSKNTLYLQMNSLRAEDTAVYYCAAGSSPTAIFGKSGMDYWGQGTQVTVSS
notes: as for B1
Question: How did the “EC50 (read off the curve)” value [1] turn out when B3 was run?
Answer: The value was ~20 nM.

Question: And the EC50 [2]?
Answer: Its EC50 is 13.4 nM.

Question: What about the Kd [3] of the same binder?
Answer: Its Kd is 366 nM.

Question: And the Kd [4]?
Answer: Its Kd is 4.66 nM.

Question: And the Kd [5]?
Answer: The Kd was 219 nM.

B4: CD3-PDL1-MSLN trispecific antibody 5Y3-8 (other)
light: [omitted - about 100 residues][omitted - about 100 residues]
heavy: EVQLVESGGGLVQPGGSLRLSCAASGFTFNTYAMNWVRQAPGKGLEWVARIRSKYNNYATYYADSVKGRFTISRDDSKSILYLQMNSLKTEDTAMYYCVRHERFGNSYVSWFAYWGQGTLVTVSSASTKGPSVFPLAPSSKSTSGGTAALGCLVKDYFPEPVTVSWNSGALTSGVHTFPAVLQSSGLYSLSSVVTVPSSSLGTQTYICNVNHKPSNTKVDKKVEPKSCDKTHTCPPCPAPEAAGAPSVFLFPPKPKDTLMISRTPEVTCVVVDVSHEDPEVKFNWYVDGVEVHNAKTKPREEQYNSTYRVVSVLTVLHQDWLNGKEYKCAVSNKALPAPIEKTISKAKGQPREPQVYTLPPSRDELTKNQVSLWCLVKGFYPSDIAVEWESNGQPENNYKTTPPVLDSDGSFFLYSKLTVDKSRWQQGNVFSCSVMHEALHNHYTQKSLSLSPGGGGGSGGGGSGGGGSEVQLVESGGGLIQPGGSLRLSCAASGNIGSIRHMGWVRQAPGKERELVATITTVGTTYYANFVKGRFTISRDNSKNTLYLQMNSLRAEDTAVYYCRATAHPTDYWGQGTLVTVSS
chain: EVQLVESGGGLIQPGGSLRLSCAASGNIGSIRHMGWVRQAPGKERELVATITTVGTTYYANFVKGRFTISRDNSKNTLYLQMNSLRAEDTAVYYCRATAHPTDYWGQGTLVTVSSGGGGSDKTHTCPPCPAPEAAGAPSVFLFPPKPKDTLMISRTPEVTCVVVDVSHEDPEVKFNWYVDGVEVHNAKTKPREEQYNSTYRVVSVLTVLHQDWLNGKEYKCAVSNKALPAPIEKTISKAKGQPREPQVYTLPPSRDELTKNQVSLSCAVKGFYPSDIAVEWESNGQPENNYKTTPPVLDSDGSFFLVSKLTVDKSRWQQGNVFSCSVMHEALHNHYTQKSLSLSPGGGGGSGGGGSGGGGSEVQLLESGGGLVQPGGSLRLSCAASGRTFSSYVMGWFRQAPGKGREFVSAISRAGSTYSADSVKGRFTISRDNSKNTLYLQMNSLRAEDTAVYYCAAGSSPTAIFGKSGMDYWGQGTQVTVSS
notes: as for B1
Question: B4 was tested. Which EC50 [2] did it give?
Answer: The EC50 was 26.2 nM.

Question: And the Kd [3]?
Answer: Its Kd is 140 nM.

Question: And the Kd [4]?
Answer: Its Kd is 4.3 nM.

Question: And the Kd [5]?
Answer: The Kd was 228 nM.

Question: What about the “EC50 (read off the curve)” value [6] of the same binder?
Answer: The value was ~2 nM.
